# Where “and” joins values, the source holds several entries; their conditions need not be identical. Identical values can stand only once. Counter-ions that a name gives are not always drawn. In all, about 5,800 compounds went through this assay and about 620 (11%) showed activity.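 Rule for the calls: active = score above a cut-off or among the top three wells of a plate; in these data no inactive exceeds 0.85.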 The entries are a selection whose mix differs from that of the whole data set.
# Test system: primary human hepatic stellate cells (donor 1)
# Assay: scaled lipid accumulation score (0 = DMSO-like, 1 = nortriptyline-like); higher = stronger HSC inactivation (lipid re-accumulation), active = hit call of the paper
# Settings: 48 h
# [1] = library stock concentration: 10 mM
# [2] = library stock concentration: 3.33 mM
# [3] = library stock concentration: 6 mM
# [4] = library stock concentration: 80 uM
# [5] = library stock concentration: 400 uM
# [6] = library stock concentration: 1 mM
structure (smiles),measurement,setting,value
CC(C)C[C@@H](N)C1(c2ccc(Cl)cc2)CCC1,scaled lipid accumulation score,[1],inactive: 0.666
CC[C@@]1(O)C(=O)OCc2c1cc1n(c2=O)Cc2cc3ccccc3nc2-1 [Camptothecin],scaled lipid accumulation score,[2],inactive: ≤ 0
same,scaled lipid accumulation score,library stock concentration: 5.7 mM,inactive: ≤ -0.006
same,scaled lipid accumulation score,[1],inactive: ≤ 0
"CC[C@@]1(O)C(=O)OCc2c1cc1n(c2=O)Cc2cc3ccccc3nc2-1 [Camptothecine (S,+)]",scaled lipid accumulation score,,inactive: ≤ 0
CC[C@@]1(O)C(=O)OCc2c1cc1n(c2=O)Cc2cc3ccccc3nc2-1 [(S)-(+)-Camptothecin],scaled lipid accumulation score,[1],inactive: 0.24
N#Cc1nn(-c2c(Cl)cc(C(F)(F)F)cc2Cl)c(N)c1[S+]([O-])C(F)(F)F (centres undefined) [Fipronil],scaled lipid accumulation score,[1],inactive: ≤ -0.027
O=C1C[C@@H]2OCC=C3CN4CC[C@]56c7ccccc7N1[C@H]5[C@H]2[C@H]3C[C@H]46 [Strychnine],scaled lipid accumulation score,[3],inactive: ≤ 0
same,scaled lipid accumulation score,[1],inactive: ≤ 0
O=C1C[C@@H]2OCC=C3CN4CC[C@]56c7ccccc7N1[C@H]5[C@H]2[C@H]3C[C@H]46 [Strychnine HCl],scaled lipid accumulation score,[3],inactive: 0.044
CC[N+](CC)(CCCNC1=CC(=O)C(NCCC[N+](CC)(CC)Cc2ccccc2)=CC1=O)Cc1ccccc1 [Benzoquinonium dibromide],scaled lipid accumulation score,[1],inactive: 0.038
COc1cc2c(cc1O)C(CCc1ccc(Cl)cc1)N(C)CC2.Cl (centres undefined),scaled lipid accumulation score,[1],active: 0.872
CCC(=O)O[C@@](Cc1ccccc1)(c1ccccc1)[C@@H](C)CN(C)C [Levopropoxyphene napsylate],scaled lipid accumulation score,,inactive: 0.039
CCNC(=O)C[C@@H]1N=C(c2ccc(Cl)cc2)c2cc(OC)ccc2-n2c(C)nnc21,scaled lipid accumulation score,[4],inactive: ≤ 0
same,scaled lipid accumulation score,[5],inactive: ≤ 0
same,scaled lipid accumulation score,library stock concentration: 2 mM,inactive: ≤ 0
same,scaled lipid accumulation score,[2],inactive: ≤ -0.009
same,scaled lipid accumulation score,[1],inactive: 0.174 and inactive: ≤ 0
CC(C)(C)c1cc(C=C(C#N)C#N)cc(C(C)(C)C)c1O [Tyrphostin 9],scaled lipid accumulation score,[1],active: 1.27
COc1ccc(C[C@H]2NC[C@H](O)[C@H]2OC(C)=O)cc1 [Anisomycin] [listing 1 of 2 here],scaled lipid accumulation score,,active: 1.05
NCCc1cc(O)c(O)cc1O [Oxidopamine hydrochloride],scaled lipid accumulation score,library stock concentration: 9.7 mM,inactive: ≤ -0.001
same,scaled lipid accumulation score,[1],inactive: ≤ 0
C#C[C@]1(O)CC[C@H]2[C@@H]3CCC4=Cc5nc6nc7ccccc7n6cc5C[C@]4(C)[C@H]3CC[C@@]21C,scaled lipid accumulation score,[1],inactive: 0.151
COc1ccc(C[C@H]2NC[C@H](O)[C@H]2OC(C)=O)cc1 [Anisomycin] [listing 2 of 2 here],scaled lipid accumulation score,[1],active: 1.39
CN1c2ccccc2C(NCCCCCCC(=O)O)c2ccc(Cl)cc2S1(=O)=O (centres undefined) [Tianeptine sodium],scaled lipid accumulation score,[2],inactive: ≤ 0
same,scaled lipid accumulation score,[1],inactive: ≤ 0
CN1c2ccccc2C(NCCCCCCC(=O)O)c2ccc(Cl)cc2S1(=O)=O (centres undefined) [Tianeptine],scaled lipid accumulation score,[1],inactive: ≤ -0.006
C[C@H]1CCC/C=C/[C@@H]2C[C@H](O)C[C@H]2[C@H](O)/C=C/C(=O)O1 [Brefeldin A],scaled lipid accumulation score,[2],inactive: 0.583
same,scaled lipid accumulation score,[1],inactive: 0.42 and inactive: 0.138
same,scaled lipid accumulation score,library stock concentration: 17.8 mM,inactive: 0.771
Cc1ncc(CNC(=O)N(CCCl)N=O)c(N)n1 [Nimustine hydrochloride],scaled lipid accumulation score,[1],inactive: 0.089
Cc1ncc(CNC(=O)N(CCCl)N=O)c(N)n1 [Nimustine],scaled lipid accumulation score,[1],inactive: ≤ -0.027
CCCC(=O)N[C@H]1CCOC1=O [N-butyryl-L-Homoserine lactone],scaled lipid accumulation score,[6],inactive: 0.044
CNc1ccc(C(=O)CC(O)CCC(C)C2OC(=O)CC(O)CC(=O)CC(O)CC(O)CC(O)CC(O)CC3(O)CC(O)C(C(=O)OC)C(CC(O[C@@H]4O[C@H](C)[C@@H](O)[C@H](N)[C@@H]4O)/C=C/C=C/C=C/C=C/C=C/C=C/C=C/C2C)O3)cc1.COC(=O)C1C(O)CC2(O)CC(O)CC(O)CC(O)CC(O)CC(=O)CC(O)CC(=O)OC(C(C)CCC(O)CC(=O)c3ccc(N)cc3)C(C)/C=C/C=C/C=C/C=C/C=C/C=C/C=C/C(O[C@@H]3O[C@H](C)[C@@H](O)[C@H](N)[C@@H]3O)CC1O2 (some centres undefined) [Mepartricin],scaled lipid accumulation score,[1],inactive: 0.017
COc1ccc2[nH]cc(CCN)c2c1 [5-Methoxytryptamine],scaled lipid accumulation score,[1],inactive: ≤ 0
COc1ccc2[nH]cc(CCN)c2c1 [O-Methylserotonin hydrochloride],scaled lipid accumulation score,[1],inactive: ≤ -0.055
"C[N+]1(C)CCc2cc3c(cc2C1C1OC(=O)c2c1ccc1c2OCO1)OCO3 (single isomer, unassigned; (-)) [(-)-Bicuculline methobromide]",scaled lipid accumulation score,[1],inactive: ≤ 0
COc1ccc(/C=C\c2cc(OC)cc(OC)c2)cc1 [cis-trismethoxy Resveratrol],scaled lipid accumulation score,[6],inactive: 0.097
Oc1ccc2c3c1O[C@H]1c4[nH]c5c(c4C[C@@]4(O)[C@@H](C2)N(CC2CC2)CC[C@]314)C[C@@]1(O)[C@H]2Cc3ccc(O)c4c3[C@@]1(CCN2CC1CC1)[C@H]5O4 [nor-Binaltorphimine dihydrochloride],scaled lipid accumulation score,[1],inactive: ≤ -0.055 and inactive: ≤ 0
COc1cc(-n2c(=S)[nH]c3ccccc3c2=O)c(Cl)cc1Cl [Mdivi-1],scaled lipid accumulation score,[2],inactive: ≤ -0.009
same,scaled lipid accumulation score,[1],inactive: 0.07
CC(=O)Nc1ccc(Cc2ccc(NC(C)=O)cc2)cc1,scaled lipid accumulation score,[2],inactive: ≤ -0.009
same,scaled lipid accumulation score,[1],inactive: 0.136
N.N.[Cl][Pt][Cl] [Cisplatin],scaled lipid accumulation score,[2],inactive: ≤ 0
same,scaled lipid accumulation score,library stock concentration: 6.7 mM,inactive: ≤ 0
same,scaled lipid accumulation score,[1],inactive: ≤ 0 and inactive: 0.139
CCCN1C[C@H](CSC)C[C@@H]2c3cccc4[nH]cc(c34)C[C@H]21,scaled lipid accumulation score,[1],inactive: 0.575
CCCN1C[C@H](CSC)C[C@@H]2c3cccc4[nH]cc(c34)C[C@H]21 [Pergolide mesylate],scaled lipid accumulation score,,inactive: 0.211
same,scaled lipid accumulation score,[2],inactive: ≤ 0
same,scaled lipid accumulation score,library stock concentration: 4.9 mM,inactive: 0.207
same,scaled lipid accumulation score,library stock concentration: 6.4 mM,inactive: 0.23
same,scaled lipid accumulation score,[1],inactive: 0.216 and inactive: 0.021
CCCN1C[C@H](CSC)C[C@@H]2c3cccc4[nH]cc(c34)C[C@H]21 [Pergolide methanesulfonate],scaled lipid accumulation score,[1],inactive: ≤ 0
CN1CC[C@]23CCCC[C@H]2[C@H]1Cc1ccc(O)cc13,scaled lipid accumulation score,library stock concentration: 9.9 mM,inactive: ≤ 0
CCCCc1ccc(C(=O)O)nc1 [Fusaric acid],scaled lipid accumulation score,,inactive: ≤ 0
same,scaled lipid accumulation score,[1],inactive: ≤ -0.07
COc1ccc(CCN)cc1OC [Homoveratrylamine],scaled lipid accumulation score,[1],inactive: 0.046
CC1=C(O)C(=O)C=C2C1=CC=C1[C@@]2(C)CC[C@@]2(C)[C@@H]3C[C@](C)(C(=O)O)CC[C@]3(C)CC[C@]12C [Celastrol],scaled lipid accumulation score,[4],inactive: 0.019
same,scaled lipid accumulation score,[5],inactive: 0.093
same,scaled lipid accumulation score,[1],inactive: 0.392
Oc1cccc2cccnc12 [Oxyquinoline hemisulfate],scaled lipid accumulation score,[1],inactive: ≤ 0
CC(C)(O)C(Cl)(Cl)Cl,scaled lipid accumulation score,[1],inactive: ≤ 0
c1cc(Cc2cnc[nH]2)ccn1 [Immethridine dihydrobromide],scaled lipid accumulation score,[1],inactive: ≤ -0.001
C[N+](C)(C)CC#CCOC(=O)Nc1cccc(Cl)c1,scaled lipid accumulation score,[1],inactive: ≤ 0
